{
  "source": "paper PMC4336329",
  "about": "(PLoS ONE, 2015)",
  "note": "Hit rate of the full screen: of about 310,000 compounds, about 14,000 (4.5%) showed an effect of 50% or more. The effect is printed as a negative number. Some of the results follow.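 Further: peak tail current of the secondary pulse compared with the same well before compound.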",
  "data": [
    {"target": "human ether-à-go-go-related gene (hERG) potassium channel (human, UniProt Q12809)", "sequence (Q12809 whole entry, looked up)": "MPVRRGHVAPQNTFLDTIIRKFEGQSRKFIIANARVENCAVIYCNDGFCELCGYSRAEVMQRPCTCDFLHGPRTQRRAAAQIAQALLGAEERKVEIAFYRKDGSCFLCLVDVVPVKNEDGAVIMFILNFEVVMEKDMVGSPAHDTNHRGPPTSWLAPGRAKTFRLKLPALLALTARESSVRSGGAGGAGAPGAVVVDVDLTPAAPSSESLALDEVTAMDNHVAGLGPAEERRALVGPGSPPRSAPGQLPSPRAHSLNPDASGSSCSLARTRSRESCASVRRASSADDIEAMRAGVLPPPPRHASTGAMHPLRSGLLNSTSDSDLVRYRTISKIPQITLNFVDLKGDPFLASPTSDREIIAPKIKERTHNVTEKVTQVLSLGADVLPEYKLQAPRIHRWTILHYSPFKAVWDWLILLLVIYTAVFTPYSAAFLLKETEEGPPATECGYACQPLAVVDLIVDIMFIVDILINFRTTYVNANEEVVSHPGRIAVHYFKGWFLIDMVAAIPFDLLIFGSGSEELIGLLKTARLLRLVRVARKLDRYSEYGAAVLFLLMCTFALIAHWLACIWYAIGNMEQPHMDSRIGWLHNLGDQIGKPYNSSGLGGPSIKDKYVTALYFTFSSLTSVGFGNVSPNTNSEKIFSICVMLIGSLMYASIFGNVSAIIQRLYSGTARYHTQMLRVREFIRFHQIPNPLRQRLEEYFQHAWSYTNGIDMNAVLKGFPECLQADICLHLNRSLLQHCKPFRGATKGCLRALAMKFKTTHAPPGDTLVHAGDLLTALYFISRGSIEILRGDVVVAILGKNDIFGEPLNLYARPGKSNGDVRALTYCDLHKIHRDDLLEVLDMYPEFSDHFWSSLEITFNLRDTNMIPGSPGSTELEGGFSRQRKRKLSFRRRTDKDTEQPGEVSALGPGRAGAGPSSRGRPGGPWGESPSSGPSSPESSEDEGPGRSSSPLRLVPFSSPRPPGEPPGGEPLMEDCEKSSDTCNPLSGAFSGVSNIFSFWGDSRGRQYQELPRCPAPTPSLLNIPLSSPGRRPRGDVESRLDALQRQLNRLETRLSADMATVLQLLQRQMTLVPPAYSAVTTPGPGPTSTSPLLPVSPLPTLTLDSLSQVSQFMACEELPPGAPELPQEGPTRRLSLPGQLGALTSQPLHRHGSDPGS", "assay": "primary screen, population patch clamp on CHO cells stably expressing hERG", "units": {"hERG current change (%, negative = inhibition) at 10uM": "%"}, "values": [
      {"molecule": "COc1ccccc1/C=C/C=N/n1c(-c2ccncc2)n[nH]c1=S", "hERG current change (%, negative = inhibition) at 10uM": 21.9},
      {"molecule": "CCOC(=O)C1CCCN(C(=O)COC(=O)C2=COCCO2)C1", "note": "(stereo not shown)", "hERG current change (%, negative = inhibition) at 10uM": 9.77},
      {"molecule": "O=C(c1ccccc1)c1ccccc1N/C=C/c1nnnn1-c1ccccc1", "hERG current change (%, negative = inhibition) at 10uM": 1.11},
      {"molecule": "C/C(=N\\Nc1nc(C)cc(-c2ccccc2)n1)c1ccc(C)o1", "hERG current change (%, negative = inhibition) at 10uM": -15.4},
      {"molecule": "C#CCNC(=O)C1=C[C@H](C2CCCCC2)C[C@H](OCc2ccc(CO)cc2)O1", "hERG current change (%, negative = inhibition) at 10uM": -13.9},
      {"molecule": "CCOc1ccccc1C1C2C(=O)N(c3ccccc3)C(=O)C2ON1c1ccccc1", "note": "(stereo not shown)", "hERG current change (%, negative = inhibition) at 10uM": -37.1},
      {"molecule": "CC(C)(C)c1ccc(O)c(N=Cc2cc3c(cc2[N+](=O)[O-])OCO3)c1", "hERG current change (%, negative = inhibition) at 10uM": -25.1},
      {"molecule": "CCOC(=O)c1cnc2cc(C)ccn2c1=O", "hERG current change (%, negative = inhibition) at 10uM": -7.41},
      {"molecule": "CC(C)c1ccc(NC(=O)Nc2cc3sccc3n2C)cc1", "hERG current change (%, negative = inhibition) at 10uM": 22.2},
      {"molecule": "CC(=O)c1c(C)[nH]c(C(=O)OCC(=O)Nc2ccc([N+](=O)[O-])cc2Cl)c1C", "hERG current change (%, negative = inhibition) at 10uM": -5.81},
      {"molecule": "O=C(O)c1nonc1-c1nonc1C(=O)O", "hERG current change (%, negative = inhibition) at 10uM": -9.42},
      {"molecule": "O=C(Nc1nnc(/N=C/c2ccco2)s1)c1ccc(F)cc1", "hERG current change (%, negative = inhibition) at 10uM": 11.8},
      {"molecule": "O=C(COC(=O)c1cccs1)Nc1cccc(S(=O)(=O)NC2=NCCCCC2)c1", "hERG current change (%, negative = inhibition) at 10uM": -6.47},
      {"molecule": "Nc1cc(-c2ccc(Br)cc2)nn1S(=O)(=O)c1cccc2nsnc12", "hERG current change (%, negative = inhibition) at 10uM": 5.71},
      {"molecule": "COc1ccc(C(C#N)Nc2ccccc2OC)cc1", "note": "(stereo not shown)", "hERG current change (%, negative = inhibition) at 10uM": -9.68},
      {"molecule": "COc1ccc(C2C(=O)N(CCc3ccccc3)CC(=O)N2C2CCCCC2)cc1", "note": "(stereo not shown)", "hERG current change (%, negative = inhibition) at 10uM": -28.9},
      {"molecule": "COC12C(COC(N)=O)C3=C(C(=O)C(C)=C(N)C3=O)N1CC1C2N1C", "note": "(stereo not shown)", "hERG current change (%, negative = inhibition) at 10uM": 1.45},
      {"molecule": "C=CCn1c(N)cc(=O)nc1SCC(=O)Nc1ccc(C)cc1", "hERG current change (%, negative = inhibition) at 10uM": 4.5},
      {"molecule": "CN1C(=O)N(C)C(=O)C2(Cc3cc(N)ccc3N3CCN(c4ccccc4F)CC32)C1=O", "note": "(stereo not shown)", "hERG current change (%, negative = inhibition) at 10uM": -8.36},
      {"molecule": "CCN(c1cc(C)cc(C)c1)S(=O)(=O)c1nnc(NC(=O)C(C)(C)C)s1", "hERG current change (%, negative = inhibition) at 10uM": 11.6},
      {"molecule": "COc1ccc(S(=O)(=O)N2CCCCC2)cc1NC(=O)c1cnc(C)cn1", "hERG current change (%, negative = inhibition) at 10uM": 7.3},
      {"molecule": "CCCCCCCNC1=CC(=O)CC(c2ccccc2)C1", "note": "(stereo not shown)", "hERG current change (%, negative = inhibition) at 10uM": -81.3},
      {"molecule": "C/C(N)=C(/C#N)C(=O)CSc1nnc(-c2ccc(OC(F)F)cc2)o1", "hERG current change (%, negative = inhibition) at 10uM": -5.31},
      {"molecule": "Cc1ccc(N2CCN(S(=O)(=O)N3CCOCC3)CC2)cc1C", "hERG current change (%, negative = inhibition) at 10uM": 13.2},
      {"molecule": "COCCNC(=S)N/N=C(\\C)c1ccc(Cl)s1", "hERG current change (%, negative = inhibition) at 10uM": -5.1},
      {"molecule": "COC(=O)c1cccc(NC(=O)c2ccc(S(=O)(=O)N3CCN(C)CC3)cc2)c1", "hERG current change (%, negative = inhibition) at 10uM": -6.25},
      {"molecule": "CCOC(=O)C1=c2s/c(=C\\c3ccncc3)c(=O)n2C(N)=C(C(=O)OC)C1c1ccncc1", "note": "(stereo not shown)", "hERG current change (%, negative = inhibition) at 10uM": 5.01},
      {"molecule": "C[C@H]1CCC[C@]2(O[C@@H](CCO)C[C@H](O)[C@H]2O)O1", "hERG current change (%, negative = inhibition) at 10uM": 17.2},
      {"molecule": "COc1ccccc1N1C(=O)CSC1=S", "hERG current change (%, negative = inhibition) at 10uM": 10.5},
      {"molecule": "COc1ccc(C(=O)Nc2sc(C)c(C)c2CN2CC(C)OC(C)C2)cc1", "note": "(stereo not shown)", "hERG current change (%, negative = inhibition) at 10uM": 1.89},
      {"molecule": "CCOc1ccc(/C=N/n2cc(-c3ccccc3)[nH]c2=S)cc1", "hERG current change (%, negative = inhibition) at 10uM": 29.9},
      {"molecule": "COc1ccc(CCN2CC(C(=O)NC3CCOCC3)CCC2=O)cc1", "note": "(stereo not shown)", "hERG current change (%, negative = inhibition) at 10uM": 9.78},
      {"molecule": "Cc1ccccc1N=C(NO)c1nonc1N", "hERG current change (%, negative = inhibition) at 10uM": 17.8},
      {"molecule": "COc1ccc(NC(=O)CSc2nnc(CNc3ccc(F)cc3)o2)c(OC)c1", "hERG current change (%, negative = inhibition) at 10uM": 11.6},
      {"molecule": "Cn1c(=O)c2c(ncn2CCCc2ccccc2)n(C)c1=O", "hERG current change (%, negative = inhibition) at 10uM": -3.21},
      {"molecule": "C[C@@H]1CCC[C@H](C)N1Cc1nc(Cc2ccccc2Cl)no1", "hERG current change (%, negative = inhibition) at 10uM": 6.26},
      {"molecule": "O=C(O)/C=C\\C(=O)O.S=C(NC1CCCCC1)N1CCC(c2cnc[nH]2)CC1", "hERG current change (%, negative = inhibition) at 10uM": -15.9},
      {"molecule": "CC(C)CNC(=S)N1CCC(c2nc(-c3ccc(F)cc3)no2)CC1", "hERG current change (%, negative = inhibition) at 10uM": -59.1},
      {"molecule": "COc1ccc(-c2nnc(SCCC(=O)O)n2-c2ccccc2)cc1", "hERG current change (%, negative = inhibition) at 10uM": 7.43},
      {"molecule": "Oc1ccc(-c2c(C3=CCCCC3)sc3ccccc23)cc1", "hERG current change (%, negative = inhibition) at 10uM": 21.9},
      {"molecule": "CCC(OC(=O)C1=Cc2ccccc2OC1)C(=O)NC1CCCC1", "note": "(stereo not shown)", "hERG current change (%, negative = inhibition) at 10uM": -17.8},
      {"molecule": "CCN(CC(=O)NCc1ccc(F)cc1)CC(O)COCc1cccc(OC)c1", "note": "(stereo not shown)", "hERG current change (%, negative = inhibition) at 10uM": -60.6},
      {"molecule": "Cn1c(=O)oc2cc(S(=O)(=O)Nc3cccc(C(=O)O)c3)ccc21", "hERG current change (%, negative = inhibition) at 10uM": 25.9},
      {"molecule": "COC(=O)c1ccccc1NC(=O)Nc1cccnc1", "hERG current change (%, negative = inhibition) at 10uM": -0.802},
      {"molecule": "C=CCNc1nc(C)c(CNc2c(C)cc(C)cc2C)nc1C#N", "hERG current change (%, negative = inhibition) at 10uM": 12.3},
      {"molecule": "CCn1c(SCC(=O)OC2CCCCC2)nc2ccccc2c1=O", "hERG current change (%, negative = inhibition) at 10uM": -7.74},
      {"molecule": "CCCCN1C(=O)C(O)(CC(=O)c2c(C)n[nH]c2C)c2cc(Br)ccc21", "note": "(stereo not shown)", "hERG current change (%, negative = inhibition) at 10uM": -4.86},
      {"molecule": "CSc1ccc(Cl)c(C(=O)N2CCOc3ccccc32)c1", "hERG current change (%, negative = inhibition) at 10uM": -28.4},
      {"molecule": "O=C(CN1CCOCC1)Nc1ccc([N+](=O)[O-])cc1Br", "hERG current change (%, negative = inhibition) at 10uM": -43.7},
      {"molecule": "CC(=O)c1ccc(NC(=O)CSc2cn[nH]n2)cc1", "hERG current change (%, negative = inhibition) at 10uM": 13.6},
      {"molecule": "Nc1cccc2c1C(=O)N(c1ccccc1)C2=O", "hERG current change (%, negative = inhibition) at 10uM": -4.67},
      {"molecule": "O=C(Cc1ccc(F)cc1)NCC1CCCO1", "note": "(stereo not shown)", "hERG current change (%, negative = inhibition) at 10uM": 3.73},
      {"molecule": "Cc1cc(C)c(NC(=O)CNC(=O)CN2C(=O)NC3(CCCc4ccccc43)C2=O)c(C)c1", "note": "(stereo not shown)", "hERG current change (%, negative = inhibition) at 10uM": 7.03},
      {"molecule": "CN1C2CCC1CC(OC(=O)c1cc(Cl)cc(Cl)c1)C2.Cl", "note": "(stereo not shown)", "hERG current change (%, negative = inhibition) at 10uM": -57.4},
      {"molecule": "COc1ccc(C2CC(=O)c3cc(OC)c(OC)cc32)cc1OC", "note": "(stereo not shown)", "hERG current change (%, negative = inhibition) at 10uM": 20.7},
      {"molecule": "CCN(CC)S(=O)(=O)c1cccc(-c2nnc(SCC(=O)c3cc(C)n(C4CC4)c3C)o2)c1", "hERG current change (%, negative = inhibition) at 10uM": 16.5},
      {"molecule": "COc1ccc(/C=N/NC(=O)CNC(=O)C2COc3ccccc3O2)cc1OC", "note": "(stereo not shown)", "hERG current change (%, negative = inhibition) at 10uM": -15.7},
      {"molecule": "CC(C)Oc1cccc(C(=O)Nc2ncn[nH]2)c1", "hERG current change (%, negative = inhibition) at 10uM": -0.876}
    ]}
  ]
}
